We go through 16 compounds from patent publication US11178870B2 (priority 2017, dated 2021).

One assay concerns Magnaporthe grisea. The format is in vivo. The note with it: Blast on rice.
For a further assay, the system named is Phytophthora infestans. The format is in vivo. The note with it: Late blight on tomato.

Structures are written as SMILES.

In the case of `CCn1c(-c2c(F)cc(F)cc2F)c(-n2cc(C)cn2)cc(Cl)c1=O` [Compound 85], in the assay with Magnaporthe grisea, the “Test A control value” was “H (H shows the control value more than 50%)”. In the assay with Phytophthora infestans, the “Test F control value” is “L (L shows the control value of 50% or less)”.
With `CCn1c(-c2ccc(F)cc2Br)c(-n2cc(Cl)cn2)cc(Cl)c1=O` [Compound 165], the “Test A control value” in the assay on Magnaporthe grisea was “H (H shows the control value more than 50%)”. Further, the “Test F control value” in the assay on Phytophthora infestans is “L (L shows the control value of 50% or less)”.
On to `CCn1c(-c2ccc(OC)cc2Cl)c(-n2cc(Cl)cn2)cc(Cl)c1=O` [Compound 159], for which the “Test A control value” in the assay on Magnaporthe grisea is “H (H shows the control value more than 50%)”. The “Test F control value” in the assay on Phytophthora infestans is recorded as “L (L shows the control value of 50% or less)”.
Take `CCn1c(-c2c(F)cc(F)cc2F)c(-n2cc(C(F)F)cn2)cc(Cl)c1=O` [Compound 124]: in the assay on Magnaporthe grisea, the “Test A control value” was “H (H shows the control value more than 50%)”. Also, the “Test F control value” in the assay on Phytophthora infestans is reported as “L (L shows the control value of 50% or less)”.
For the compound `CCn1c(-c2c(F)cc(OC)cc2F)c(-c2ccnn2C)cc(Cl)c1=O` [Compound 28], the “Test A control value” in the assay with Magnaporthe grisea is recorded as “H (H shows the control value more than 50%)”. Also, the “Test F control value” in the assay with Phytophthora infestans was “L (L shows the control value of 50% or less)”.
The like results for `CCn1c(-c2c(F)cccc2F)c(-c2ccsc2Br)cc(Cl)c1=O` [Compound 45] were, in that order, “H (H shows the control value more than 50%)” and “L (L shows the control value of 50% or less)”.
Regarding `CCn1c(-c2c(F)cccc2F)c(-c2cnc(I)o2)cc(Cl)c1=O` [Compound 92], the “Test A control value” with Magnaporthe grisea is “L (L shows the control value of 50% or less)”. Besides, in the assay with Phytophthora infestans, the “Test F control value” is on record as “L (L shows the control value of 50% or less)”.
In the case of `CCn1c(-c2c(F)cccc2F)c(C2OCCO2)cc(Cl)c1=O` [Compound 13], in the assay with Magnaporthe grisea, the “Test A control value” was “H (H shows the control value more than 50%)”. The “Test F control value” with Phytophthora infestans is “L (L shows the control value of 50% or less)”.
As for `O=c1c(Br)cc(-c2cccnc2Cl)c(-c2c(F)cccc2F)n1CC(F)F` [Compound 59], the “Test A control value” with Magnaporthe grisea is “H (H shows the control value more than 50%)”. The “Test F control value” in the assay with Phytophthora infestans was “L (L shows the control value of 50% or less)”.
The like results for `O=c1c(Cl)cc(-n2cc(Cl)cn2)c(-c2c(F)cc(F)cc2F)n1CC(F)F` [Compound 110] were, in that order, “H (H shows the control value more than 50%)” and “L (L shows the control value of 50% or less)”.
Consider `CCn1c(-c2c(F)cc(F)cc2F)c(-n2cc(C(F)(F)F)cn2)cc(C(F)(F)F)c1=O` [Compound 154], for which, in the assay with Magnaporthe grisea, the “Test A control value” is given as “H (H shows the control value more than 50%)”. Further, in the assay with Phytophthora infestans, the “Test F control value” is given as “L (L shows the control value of 50% or less)”.
`CCn1c(-c2ccccc2Cl)c(-n2cc(Cl)cn2)cc(Br)c1=O` [Compound 173]: in the assay on Magnaporthe grisea, the “Test A control value” is reported as “H (H shows the control value more than 50%)”. In addition, the “Test F control value” in the assay on Phytophthora infestans is recorded as “L (L shows the control value of 50% or less)”.
With `CCn1c(-c2c(F)cccc2F)c(-c2ocnc2OC)cc(Cl)c1=O` [Compound 91], the “Test A control value” in the assay on Magnaporthe grisea is reported as “L (L shows the control value of 50% or less)”. For the same compound, the “Test F control value” with Phytophthora infestans is listed as “L (L shows the control value of 50% or less)”.
For `Cn1c(-c2c(F)cccc2F)c(-c2cccnc2Cl)ccc1=O` [Compound 99], in the assay on Magnaporthe grisea, the “Test A control value” is “H (H shows the control value more than 50%)”. In addition, the “Test F control value” in the assay on Phytophthora infestans was “L (L shows the control value of 50% or less)”.
The like results for `O=c1c(Cl)cc(-c2cccnc2Cl)c(-c2c(F)cc(F)cc2F)n1CC(F)F` [Compound 68] were, in that order, “H (H shows the control value more than 50%)” and “L (L shows the control value of 50% or less)”.
Consider `CCn1c(-c2ccc(OC)cc2F)c(-n2cc(Cl)cn2)cc(Br)c1=O` [Compound 152], for which, in the assay with Magnaporthe grisea, the “Test A control value” was “H (H shows the control value more than 50%)”. For the same compound, the “Test F control value” in the assay with Phytophthora infestans is reported as “L (L shows the control value of 50% or less)”.
